Measurements: the RNAGym collection of RNA variant scans (doi:10.1073/pnas.2313332121)
Variants at the background level are over-represented here.

B1: TPR 5TU (parent)
chain: GGAUCUUCUCGAUCUAACAAAAAAGACAAAUCUGCCACAAAGCUUGAGAGCAUCUUCGGAUGCAGAGGCGGCAGCCUUCGGUGGCGCGAUAGCGCCAACGUUCUCAACUAUGACACGCAAAACGCGUGCUCCGUUGAAUGGAGUUUAUCAUG

Variants of: B1
Assay: polymerase ribozyme fitness, log enrichment relative to wild type (log ratio); higher = more active; in vitro selection for triplet polymerase activity
Summary of the method: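 Fitness is a logarithmic measure of how a genotype enriched relative to the wild type, with replicate averages weighted by inverse variance. The logarithm uses base 2, and enrichment came from Illumina sequencing of input and output libraries. Those libraries were PCR-built, transcribed mutants of each subunit of a heterodimeric triplet polymerase ribozyme, passed through one triplicate in vitro selection round that included frozen incubation at −7 °C, gel excision of extended constructs and streptavidin-bead capture. Genotypes were kept only if they had ≥10 input reads and ≥1 read per output.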

| Variant | polymerase ribozyme fitness (log ratio) |
| --- | --- |
| GGAUCUUCUCGAUCUAACAAAAAAGACAAAUCUGCCACAAAGCUUGAGAGCAUCAUCGGAUGCAGAGGAGGCAGCCUUCGGUGGCGCGAUAGCGGAAACGUUCUCAACUAUGACACGCAAAACGCGUGCUCCGUUGAAUGGAGUUUAUCAUG [U55A C69A C95G C96A] | ≤ -4.2 |
| GGAUCUUCUCGAUCUAACAAAAAAGACAAAUCUGCCACAAAGCUUGAGAGCAUCAUCGGAUGCAGAGGGGGCAGCCUUCGGUGGCGCGAUAGCGCCAACGUUCUCAACUAUGACACGCAAAACGCGUGCUCCGUUGAAUGGAGUUAAUCAUG [U55A C69G U146A] | -3.62 |
| GGAUCUUCUCGAUCUAACAAAAAAGACAAAUCUGCCACAAAGCUUGAGAGCAUCAUCGGAUGCAGAGGCGGAAGCCUUCGGUGGCGCGAUAGCGCCAACGUUCUCAACUAUGACACGCUAAACGCGUGCUCCGUUGAAUGGAGUUUAUCAUG [U55A C72A A119U] | ≤ -4.2 |
| GGAUCUUCUCGAUCUAACAAAAAAGACAAAUCUGCCACAAAGCUUGAGAGCAUCAUCGGAUGCAGAGGCGGUAGCCUUCGGUAGCGCGAUAGCGCCAACGUUCUCAACUAUGACACGCAAAACGCGUGCUCCGUUGAAUGGAGUUUAUCAUG [U55A C72U G83A] | -0.82 |
| GGAUCUUCUCGAUCUAACAAAAAAGACAAAUCUGCCACAAAGCUUGAGAGCAUCAUCGGAUGCAGAGGCGGCAGGCUUCGGUGGCGCGAUAGAGCCAACGUUCUGAACUAUGACACGCAAAACGCGUGCUCCGUUGAAUGGAGUUUAUCAUG [U55A C75G C93A C105G] | ≤ -4.2 |
| GGAUCUUCUCGAUCUAACAAAAAAGACAAAUCUGCCACAAAGCUUGAGAGCAUCAUCGGAUGCAGAGGCGGCAGGCUUCGGUGGCGCGAUAGCGCCAACGUUCUCAACUAUGACACGCAAAACGCGUGCUCGGUUGAAUGGAGUUUAUCAUG [U55A C75G C132G] | ≤ -4.2 |
| GGAUCUUCUCGAUCUAACAAAAAAGACAAAUCUGCCACAAAGCUUGAGAGCAUCAUCGGAUGCAGAGGCGGCAGUCUUCGGUGGCGCGAUAACGCCAACGUUCGCAACUAUGACACGCAAAACGCGUGCUCCUUUGAAUGGAGUUUAUUAUG [U55A C75U G92A U104G G133U C149U] | ≤ -4.2 |
| GGAUCUUCUCGAUCUAACAAAAAAGACAAAUCUGCCACAAAGCUUGAGAGCAUCAUCGGAUGCAGAGGCGGCAGCAUUCGGUGGCGCGAUAGCGCCAACGUUCUCAACUAUGACGCGCAACACGCGUGCUCCGUUGAAUGGAGUUUAUCAUG [U55A C76A A115G A121C] | -1.09 |
| GGAUCUUCUCGAUCUAACAAAAAAGACAAAUCUGCCACAAAGCUUGAGAGCAUCAUCGGAUGCAGAGGCGGCAGCAUUCGGUGGAGCGAUCACGCCAACGUUCUCAACUAUGACACGCAAAACGCGUGCUCCGUUGAAUAGAGUAUAUCAUG [U55A C76A C85A A91C G92A G140A U145A] | ≤ -4.2 |
| GGAUCUUCUCGAUCUAACAAAAAAGACAAAUCUGCCACAAAGCUUGAGAGCAUCAUCGGAUGCAGAGGCGGCAGCAUUCGGUGGCGGGAUAGUGGCAACGGUCUCAACUAUGACACGCAAAACGCGUACUCCGUUGAAUGGAGUUUAUCAUG [U55A C76A C87G C93U C95G U101G G128A] | ≤ -4.2 |
| GGAUCUUCUCGAUCUAACAAAAAAGACAAAUCUGCCACAAAGCUUGAGAGCAUCAUCGGAUGCAGAGGCGGCAGCAUUCGGUGGCGCGAUAGCGCUAAGGUUCUCAACUAUGACACGCAAAACGCGUGCUCCGUUGAAUGGAGUUUAUCAUG [U55A C76A C96U C99G] | ≤ -4.2 |
| GGAUCUUCUCGAUCUAACAAAAAAGACAAAUCUGCCACAAAGCUUGAGAGCAUCAUCGGAUGCAGAGGCGGCAGCAUUCGGUGGCGCGAUAGCGCCAACGUUCUCAACUAUGAUACGCAAAACGCGUGCUCCGUUGAAUGGAGUUUAUCAUG [U55A C76A C114U] | -3.91 |
| GGAUCUUCUCGAUCUAACAAAAAAGACAAAUCUGCCACAAAGCUUGAGAGCAUCAUCGGAUGCAGAGGCGGCAGCAUUCGGUGCCCCGAUAGCGCCAACGUUCUCAACUAUGACACGCAAAACGCGUGCUCCGUUGAAUGGAGUUUAUCAUG [U55A C76A G84C G86C] | ≤ -4.2 |
| GGAUCUUCUCGAUCUAACAAAAAAGACAAAUCUGCCACAAAGCUUGAGAGCAUCAUCGGAUGCAGAGGCGGCAGCGUUCGGUGGCGCGAUAGCGCCAACGUUCUCAACUAUGACACGCAAAACGCGUGCUCCGUUGAAUGGAGUUUAUCAUG [U55A C76G] | ≤ -4.2 |
| GGAUCUUCUCGAUCUAACAAAAAAGACAAAUCUGCCACAAAGCUUGAGAGCAUCAUCGGAUGCAGAGGCGGCAGCGUUCGGUGGCGCGAUAGCGCCAACCUUCUCAACAAUGACACGCAGAACGCGUGCUCCGUUGAAUGGAGUUUAUCAUG [U55A C76G G100C U109A A120G] | ≤ -4.2 |
| GGAUCUUCUCGAUCUAACAAAAAAGACAAAUCUGCCACAAAGCUUGAGAGCAUCAUCGGAUGCAGAGGCGGCAGCCUUAGGUGGCGCGAUAACGCCAACAUUCUCAACCAUGACACGCAAAACGCGUGCUCCGUUGAAUGGAGUUUAUCAUG [U55A C79A G92A G100A U109C] | ≤ -4.2 |
| GGAUCUUCUCGAUCUAACAAAAAAGACAAAUCUGCCACAAAGCUUGAGAGCAUCAUCGGAUGCAGAGGCGGCAGCCUUGGGUGGGGCGAUAGCGCCAACGUUCUCAACUAUGACACGCAAAACGCGUGCUCCGUUGAAGGGAGUUUAUCAUG [U55A C79G C85G U139G] | ≤ -4.2 |
| GGAUCUUCUCGAUCUAACAAAAAAGACAAAUCUGCCACAAAGCUUGAGAGCAUCAUCGGAUGCAGAGGCGGCAGCCUUUGGUGGCGCGAUAGCGCCAACGUUCUCAACUAUGACACGCAAAACGCGUGCUCCGUUGAAUGGAGUUUAUCAUG [U55A C79U] | -2.74 |
| GGAUCUUCUCGAUCUAACAAAAAAGACAAAUCUGCCACAAAGCUUGAGAGCAUCAUCGGAUGCAGAGGCGGCAGCCUUUGGUGGUGCGAUAGCGCCAACGUUCUCAACUAUGACACGCAAAACGCGUGCUCCGUUGAAUGGAGUUUAUCAUG [U55A C79U C85U] | -3.3 |
